# Measured values from paper PMC9911399, “Two distinct binding modes provide the RNA-binding protein RbFox with extraordinary sequence specificity”.
# Numbering of substitutions follows the chain as printed; changes in the protein carry UniProt numbers. The list shows a part of the results.
# T1: RBFOX1 RRM RbFoxmut (Fox-RRM*) (Homo sapiens, UniProt Q9NWB1 109-208, R118D;E147R;N151S;E152T)
# T1 sequence: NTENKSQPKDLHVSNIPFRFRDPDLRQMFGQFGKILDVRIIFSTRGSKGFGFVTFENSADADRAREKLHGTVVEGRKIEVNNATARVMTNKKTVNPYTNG
# B1: UUCAUAU (DNA:RNA)
# RNA: GGGAGACCGGAAUUCAGAUUGUCCUUCAUAUUUAAAUCCCGUCGUAGCCACCA
# DNA 1: CAATCTGAATTCCGGTCTCCC
# DNA 2: TGGTGGCTACGACGGGATT
# B2: AGCGCGC (DNA:RNA)
# RNA: B1 RNA with U25A, U26G, A28G, U29C, A30G, U31C
# DNA 1: CAATCTGAATTCCGGTCTCCC
# DNA 2: TGGTGGCTACGACGGGATT
# B3: CACUAAG (DNA:RNA)
# RNA: B1 RNA with U25C, U26A, A28U, U29A, U31G
# DNA 1: CAATCTGAATTCCGGTCTCCC
# DNA 2: TGGTGGCTACGACGGGATT
# B4: CGAUUGU (DNA:RNA)
# RNA: B1 RNA with U25C, U26G, C27A, A28U, A30G
# DNA 1: CAATCTGAATTCCGGTCTCCC
# DNA 2: TGGTGGCTACGACGGGATT
# B5: CGGAUGU (DNA:RNA)
# RNA: B1 RNA with U25C, U26G, C27G, A30G
# DNA 1: CAATCTGAATTCCGGTCTCCC
# DNA 2: TGGTGGCTACGACGGGATT
# B6: UGGCAAA (DNA:RNA)
# RNA: B1 RNA with U26G, C27G, A28C, U29A, U31A
# DNA 1: CAATCTGAATTCCGGTCTCCC
# DNA 2: TGGTGGCTACGACGGGATT
# B7: GUCGAGA (DNA:RNA)
# RNA: B1 RNA with U25G, A28G, U29A, A30G, U31A
# DNA 1: CAATCTGAATTCCGGTCTCCC
# DNA 2: TGGTGGCTACGACGGGATT
# B8: GCCCCAG (DNA:RNA)
# RNA: B1 RNA with U25G, U26C, A28C, U29C, U31G
# DNA 1: CAATCTGAATTCCGGTCTCCC
# DNA 2: TGGTGGCTACGACGGGATT
# B9: AGCGCUG (DNA:RNA)
# RNA: B1 RNA with U25A, U26G, A28G, U29C, A30U, U31G
# DNA 1: CAATCTGAATTCCGGTCTCCC
# DNA 2: TGGTGGCTACGACGGGATT
# B10: CGACGGA (DNA:RNA)
# RNA: GGGAGACCGGAAUUCAGAUUGUCCCGACGGAUUAAAUCCCGUCGUAGCCACCA
# DNA 1: CAATCTGAATTCCGGTCTCCC
# DNA 2: TGGTGGCTACGACGGGATT
# B11: GCGUAAA (DNA:RNA)
# RNA: B10 RNA with C25G, G26C, A27G, C28U, G29A, G30A
# DNA 1: CAATCTGAATTCCGGTCTCCC
# DNA 2: TGGTGGCTACGACGGGATT
# B12: GCAGAUC (DNA:RNA)
# RNA: B10 RNA with C25G, G26C, C28G, G29A, G30U, A31C
# DNA 1: CAATCTGAATTCCGGTCTCCC
# DNA 2: TGGTGGCTACGACGGGATT
# B13: CUCCCAC (DNA:RNA)
# RNA: B1 RNA with U25C, A28C, U29C, U31C
# DNA 1: CAATCTGAATTCCGGTCTCCC
# DNA 2: TGGTGGCTACGACGGGATT
# B14: CUUACAU (DNA:RNA)
# RNA: B1 RNA with U25C, C27U, U29C
# DNA 1: CAATCTGAATTCCGGTCTCCC
# DNA 2: TGGTGGCTACGACGGGATT
# B15: GCAGACC (DNA:RNA)
# RNA: B10 RNA with C25G, G26C, C28G, G29A, G30C, A31C
# DNA 1: CAATCTGAATTCCGGTCTCCC
# DNA 2: TGGTGGCTACGACGGGATT
# B16: GGUACUA (DNA:RNA)
# RNA: B10 RNA with C25G, A27U, C28A, G29C, G30U
# DNA 1: CAATCTGAATTCCGGTCTCCC
# DNA 2: TGGTGGCTACGACGGGATT
# B17: CCGCGAC (DNA:RNA)
# RNA: B10 RNA with G26C, A27G, G30A, A31C
# DNA 1: CAATCTGAATTCCGGTCTCCC
# DNA 2: TGGTGGCTACGACGGGATT
# B18: UGCAAUG (DNA:RNA)
# RNA: B1 RNA with U26G, U29A, A30U, U31G
# DNA 1: CAATCTGAATTCCGGTCTCCC
# DNA 2: TGGTGGCTACGACGGGATT
# B19: AUCAUGC (DNA:RNA)
# RNA: B1 RNA with U25A, A30G, U31C
# DNA 1: CAATCTGAATTCCGGTCTCCC
# DNA 2: TGGTGGCTACGACGGGATT
# B20: CUUAUUC (DNA:RNA)
# RNA: B1 RNA with U25C, C27U, A30U, U31C
# DNA 1: CAATCTGAATTCCGGTCTCCC
# DNA 2: TGGTGGCTACGACGGGATT
# Target: T1, RBFOX1 RRM RbFoxmut (Fox-RRM*)
# Assay: EMSA; HiTS-Eq, 1 nM pool, 10 min; buffer printed only for the single-RNA assays: 10 mM Tris pH 7.5, 150 mM NaCl, 3.4 mM EDTA, 0.001% NP-40, 30 C
# Conditions: tags: His6 N-terminal (pET28a); label: 5' 32P
# Outline: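 Purified wild-type or mutant RbFox RRM at increasing concentrations was equilibrated with 1 nM of 5′-radiolabelled RNA carrying 7 randomized nucleotides for 10 min in 50 µL. Unbound RNA was separated by 8% native PAGE and sequenced. Relative association constants came from read-count changes of each RNA species compared with the control reaction, normalised to the cognate motif.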
row,Binder,binding signal
1,B1,0.115 KA relative to UGCAUGU
2,B2,0.0969 KA relative to UGCAUGU
3,B3,0.146 KA relative to UGCAUGU
4,B4,0.206 KA relative to UGCAUGU
5,B5,0.281 KA relative to UGCAUGU
6,B6,0.075 KA relative to UGCAUGU
7,B7,0.0842 KA relative to UGCAUGU
8,B8,0.117 KA relative to UGCAUGU
9,B9,0.0951 KA relative to UGCAUGU
10,B10,0.071 KA relative to UGCAUGU
11,B11,0.0945 KA relative to UGCAUGU
12,B12,0.0732 KA relative to UGCAUGU
13,B13,0.107 KA relative to UGCAUGU
14,B14,0.0902 KA relative to UGCAUGU
15,B15,0.0636 KA relative to UGCAUGU
16,B16,0.0754 KA relative to UGCAUGU
17,B17,0.0861 KA relative to UGCAUGU
18,B18,0.242 KA relative to UGCAUGU
19,B19,0.129 KA relative to UGCAUGU
20,B20,0.0884 KA relative to UGCAUGU
